Over roughly 81,000 sequences, “one-hybrid fitness for binding parS DNA” has its median near -0.17; the highest 2% begin near 0.51. The list shows a part of the results.

Sequences and labels used below:
B1: Caulobacter ParB omega fusion; a variant is named by its letters at X, in order, B8GW30 (parent)
chain: MESVVVGEPGMSEGRRGLGRGLSALLGEVDAAPAQAPGEQLGGSREAPIEILQRNPDQPRRTFREEDLEDLSNSIREKGVLQPILVRPSPDTAGEYQIVAGERAWRAAQRAGLKTVPIMVRELDDLAVLEIGIIENVQRADLNVLEEALSYKVLMEKFERTQENIAQTIGKSXSHVANXMRLLXLPDEVQSYLVSGELTAXHARAIAAAADPVALAKQIIEGGLSVRETEALARKAPNLSAGKSKGGRPPRVKDTDTQALESDLSSVLGLDVSIDHRGSTGTLTITYATLEQLDDLCNRLTRGI

In this assay the parent is B1. As to the kind of experiment: one-hybrid fitness for binding parS DNA (scaled: cognate 1, non-cognate 0); higher = stronger binding. Particulars: with parS DNA site. In a few lines: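 Pre- and post-selection plasmids were Illumina-sequenced, three replicate libraries were pooled, and any variant with under 10 reads was removed. The libraries were Caulobacter ParB with four specificity codons randomised, selected in E. coli USO through a HIS3 reporter whose site is 19 bp from the promoter. Cells grew 48 hours at 37°C on M9 without histidine, with 0.1 mM IPTG and 5 mM 3-AT. Fitness is the log change in variant-to-wild-type read ratio, rescaled against cognate and non-cognate.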
On to FLTC, for which the “one-hybrid fitness for binding parS DNA” value was ≤ 0.2.

TAAG: the “one-hybrid fitness for binding parS DNA” value was ≤ 0.2.

As for PYYD, the “one-hybrid fitness for binding parS DNA” value is ≤ 0.2.

Turning to KWDG, the “one-hybrid fitness for binding parS DNA” value is ≤ 0.2.

Turning to TVTG, the “one-hybrid fitness for binding parS DNA” value was ≤ 0.2.

Consider FGMS, for which the “one-hybrid fitness for binding parS DNA” value is ≤ 0.2.

As to CMVY, the “one-hybrid fitness for binding parS DNA” value is ≤ 0.2.

In the case of THSF, the “one-hybrid fitness for binding parS DNA” value was ≤ 0.2.

Turning to TQRS, the “one-hybrid fitness for binding parS DNA” value was ≤ 0.2.

On to LLTA, for which the “one-hybrid fitness for binding parS DNA” value is ≤ 0.2.

Regarding TPCN, the “one-hybrid fitness for binding parS DNA” value is ≤ 0.2.

As for FSTR, the “one-hybrid fitness for binding parS DNA” value was ≤ 0.2.

Regarding FMDS, the “one-hybrid fitness for binding parS DNA” value is ≤ 0.2.

On to HSKL, for which the “one-hybrid fitness for binding parS DNA” value is ≤ 0.2.

Consider LHWG, for which the “one-hybrid fitness for binding parS DNA” value is ≤ 0.2.

For the variant CRNH, the “one-hybrid fitness for binding parS DNA” value was ≤ 0.2.

Regarding PWIT, the “one-hybrid fitness for binding parS DNA” value is ≤ 0.2.

For the variant KTHC, the “one-hybrid fitness for binding parS DNA” value was ≤ 0.2.

Regarding QNQC, the “one-hybrid fitness for binding parS DNA” value is ≤ 0.2.

Turning to ASCT, the “one-hybrid fitness for binding parS DNA” value is ≤ 0.2.

Take NAVN: the “one-hybrid fitness for binding parS DNA” value is ≤ 0.2.

Consider HYSR, for which the “one-hybrid fitness for binding parS DNA” value is ≤ 0.2.

Take VLTG: the “one-hybrid fitness for binding parS DNA” value is ≤ 0.2.

As for WTEG, the “one-hybrid fitness for binding parS DNA” value is ≤ 0.2.

In the case of YLPY, the “one-hybrid fitness for binding parS DNA” value was ≤ 0.2.

On to RGHY, for which the “one-hybrid fitness for binding parS DNA” value is ≤ 0.2.

For YSNG, the “one-hybrid fitness for binding parS DNA” value is ≤ 0.2.

GNYR: the “one-hybrid fitness for binding parS DNA” value is ≤ 0.2.

Consider DMKY, for which the “one-hybrid fitness for binding parS DNA” value was ≤ 0.2.

Turning to QPYQ, the “one-hybrid fitness for binding parS DNA” value is ≤ 0.2.

Consider QGGD, for which the “one-hybrid fitness for binding parS DNA” value is ≤ 0.2.

On to VTKL, for which the “one-hybrid fitness for binding parS DNA” value was ≤ 0.2.

As for RDWY, the “one-hybrid fitness for binding parS DNA” value was ≤ 0.2.

Consider RLSM, for which the “one-hybrid fitness for binding parS DNA” value came to 0.329.

For the variant WPLE, the “one-hybrid fitness for binding parS DNA” value was ≤ 0.2.

Consider RHSR, for which the “one-hybrid fitness for binding parS DNA” value is ≤ 0.2.

Regarding PGPY, the “one-hybrid fitness for binding parS DNA” value was ≤ 0.2.

Consider LWSK, for which the “one-hybrid fitness for binding parS DNA” value is ≤ 0.2.

Regarding KSDY, the “one-hybrid fitness for binding parS DNA” value is ≤ 0.2.

Consider PRNW, for which the “one-hybrid fitness for binding parS DNA” value is ≤ 0.2.

Turning to NYWS, the “one-hybrid fitness for binding parS DNA” value was ≤ 0.2.

As for RKQK, the “one-hybrid fitness for binding parS DNA” value was ≤ 0.2.

Turning to NNMQ, the “one-hybrid fitness for binding parS DNA” value is ≤ 0.2.

On to QQTC, for which the “one-hybrid fitness for binding parS DNA” value is ≤ 0.2.

DARS: the “one-hybrid fitness for binding parS DNA” value is ≤ 0.2.

For the variant AESC, the “one-hybrid fitness for binding parS DNA” value is ≤ 0.2.

Take DRGM: the “one-hybrid fitness for binding parS DNA” value was ≤ 0.2.

As to KTCQ, the “one-hybrid fitness for binding parS DNA” value was ≤ 0.2.

Regarding PLIW, the “one-hybrid fitness for binding parS DNA” value is ≤ 0.2.

Consider DQMV, for which the “one-hybrid fitness for binding parS DNA” value is ≤ 0.2.

Turning to RCYY, the “one-hybrid fitness for binding parS DNA” value was 0.472.

As to NGPT, the “one-hybrid fitness for binding parS DNA” value was ≤ 0.2.

For RLCE, the “one-hybrid fitness for binding parS DNA” value is ≤ 0.2.

As for PPRM, the “one-hybrid fitness for binding parS DNA” value is ≤ 0.2.

For the variant MRKC, the “one-hybrid fitness for binding parS DNA” value was ≤ 0.2.

On to APVI, for which the “one-hybrid fitness for binding parS DNA” value is ≤ 0.2.

Consider RILH, for which the “one-hybrid fitness for binding parS DNA” value is ≤ 0.2.

With QSGE, the “one-hybrid fitness for binding parS DNA” value is ≤ 0.2.

On to HVTK, for which the “one-hybrid fitness for binding parS DNA” value is ≤ 0.2.

Regarding HSYF, the “one-hybrid fitness for binding parS DNA” value is ≤ 0.2.

For HAMF, the “one-hybrid fitness for binding parS DNA” value was ≤ 0.2.

Turning to DRIW, the “one-hybrid fitness for binding parS DNA” value was ≤ 0.2.

Turning to LLGA, the “one-hybrid fitness for binding parS DNA” value is ≤ 0.2.

On to HMSA, for which the “one-hybrid fitness for binding parS DNA” value was ≤ 0.2.

In the case of THTS, the “one-hybrid fitness for binding parS DNA” value is ≤ 0.2.

On to SCLT, for which the “one-hybrid fitness for binding parS DNA” value was ≤ 0.2.

With PTMG, the “one-hybrid fitness for binding parS DNA” value is ≤ 0.2.

Regarding FEAM, the “one-hybrid fitness for binding parS DNA” value was ≤ 0.2.

In the case of QVKQ, the “one-hybrid fitness for binding parS DNA” value is ≤ 0.2.

On to EWAR, for which the “one-hybrid fitness for binding parS DNA” value was ≤ 0.2.

On to VCAV, for which the “one-hybrid fitness for binding parS DNA” value was ≤ 0.2.

On to QPYD, for which the “one-hybrid fitness for binding parS DNA” value was ≤ 0.2.

For AVTF, the “one-hybrid fitness for binding parS DNA” value was ≤ 0.2.

On to MAQL, for which the “one-hybrid fitness for binding parS DNA” value is ≤ 0.2.

For FKHT, the “one-hybrid fitness for binding parS DNA” value was ≤ 0.2.

In the case of FPAI, the “one-hybrid fitness for binding parS DNA” value was ≤ 0.2.

Regarding PSHI, the “one-hybrid fitness for binding parS DNA” value was ≤ 0.2.

Turning to WAGS, the “one-hybrid fitness for binding parS DNA” value was ≤ 0.2.

As to TALV, the “one-hybrid fitness for binding parS DNA” value is ≤ 0.2.

STTA: the “one-hybrid fitness for binding parS DNA” value is ≤ 0.2.

SPSV: the “one-hybrid fitness for binding parS DNA” value was ≤ 0.2.

For GTRV, the “one-hybrid fitness for binding parS DNA” value was ≤ 0.2.

On to HTLC, for which the “one-hybrid fitness for binding parS DNA” value was ≤ 0.2.

As to PRTP, the “one-hybrid fitness for binding parS DNA” value is ≤ 0.2.

Regarding GMAC, the “one-hybrid fitness for binding parS DNA” value is ≤ 0.2.

As for FSNW, the “one-hybrid fitness for binding parS DNA” value was ≤ 0.2.

As for CFRC, the “one-hybrid fitness for binding parS DNA” value is ≤ 0.2.

Take DLVT: the “one-hybrid fitness for binding parS DNA” value is ≤ 0.2.

For the variant GPFT, the “one-hybrid fitness for binding parS DNA” value is ≤ 0.2.

GMDS: the “one-hybrid fitness for binding parS DNA” value is ≤ 0.2.

Regarding ANIF, the “one-hybrid fitness for binding parS DNA” value is ≤ 0.2.

On to NKIK, for which the “one-hybrid fitness for binding parS DNA” value is ≤ 0.2.

Regarding NLNW, the “one-hybrid fitness for binding parS DNA” value is ≤ 0.2.

For NNVG, the “one-hybrid fitness for binding parS DNA” value was ≤ 0.2.

Take KDRF: the “one-hybrid fitness for binding parS DNA” value was ≤ 0.2.

As to KDQR, the “one-hybrid fitness for binding parS DNA” value is ≤ 0.2.

Consider NAHC, for which the “one-hybrid fitness for binding parS DNA” value was ≤ 0.2.

For the variant LGKW, the “one-hybrid fitness for binding parS DNA” value was ≤ 0.2.

On to VIYG, for which the “one-hybrid fitness for binding parS DNA” value was ≤ 0.2.

Consider PLQT, for which the “one-hybrid fitness for binding parS DNA” value was ≤ 0.2.

As for NGLF, the “one-hybrid fitness for binding parS DNA” value is ≤ 0.2.

For STTS, the “one-hybrid fitness for binding parS DNA” value is ≤ 0.2.

Take QAGG: the “one-hybrid fitness for binding parS DNA” value is ≤ 0.2.

Take QVPI: the “one-hybrid fitness for binding parS DNA” value was ≤ 0.2.

With ICTF, the “one-hybrid fitness for binding parS DNA” value was ≤ 0.2.

With WCGV, the “one-hybrid fitness for binding parS DNA” value is ≤ 0.2.

Turning to NHRA, the “one-hybrid fitness for binding parS DNA” value was ≤ 0.2.

Consider LGAW, for which the “one-hybrid fitness for binding parS DNA” value was ≤ 0.2.

As to LNLP, the “one-hybrid fitness for binding parS DNA” value was ≤ 0.2.

Consider PYPR, for which the “one-hybrid fitness for binding parS DNA” value was ≤ 0.2.

Turning to TRPD, the “one-hybrid fitness for binding parS DNA” value was ≤ 0.2.

As to KFNA, the “one-hybrid fitness for binding parS DNA” value is ≤ 0.2.

As for RRNI, the “one-hybrid fitness for binding parS DNA” value is ≤ 0.2.

On to SIMS, for which the “one-hybrid fitness for binding parS DNA” value was ≤ 0.2.

In the case of ECPM, the “one-hybrid fitness for binding parS DNA” value was ≤ 0.2.

On to VMRS, for which the “one-hybrid fitness for binding parS DNA” value is ≤ 0.2.

For the variant QKLD, the “one-hybrid fitness for binding parS DNA” value is ≤ 0.2.

Turning to RLAD, the “one-hybrid fitness for binding parS DNA” value was ≤ 0.2.

As to KLPV, the “one-hybrid fitness for binding parS DNA” value was ≤ 0.2.

For LCVS, the “one-hybrid fitness for binding parS DNA” value is ≤ 0.2.

Regarding ILCS, the “one-hybrid fitness for binding parS DNA” value is ≤ 0.2.

Turning to EVGS, the “one-hybrid fitness for binding parS DNA” value was ≤ 0.2.

Take IRER: the “one-hybrid fitness for binding parS DNA” value is ≤ 0.2.

Consider QASD, for which the “one-hybrid fitness for binding parS DNA” value is ≤ 0.2.

RHIV: the “one-hybrid fitness for binding parS DNA” value was ≤ 0.2.

As for MNNG, the “one-hybrid fitness for binding parS DNA” value was ≤ 0.2.

As to HDCD, the “one-hybrid fitness for binding parS DNA” value was ≤ 0.2.

Take FFTA: the “one-hybrid fitness for binding parS DNA” value was ≤ 0.2.

For the variant RWVA, the “one-hybrid fitness for binding parS DNA” value turned out to be 0.329.

Consider TAMP, for which the “one-hybrid fitness for binding parS DNA” value is ≤ 0.2.

On to FRLA, for which the “one-hybrid fitness for binding parS DNA” value is ≤ 0.2.

GQAE: the “one-hybrid fitness for binding parS DNA” value was ≤ 0.2.

In the case of ANKR, the “one-hybrid fitness for binding parS DNA” value is ≤ 0.2.

As to LMNM, the “one-hybrid fitness for binding parS DNA” value is ≤ 0.2.

In the case of YRTF, the “one-hybrid fitness for binding parS DNA” value was ≤ 0.2.

Turning to AEMS, the “one-hybrid fitness for binding parS DNA” value is ≤ 0.2.

As for LVLS, the “one-hybrid fitness for binding parS DNA” value is ≤ 0.2.

Consider LPAS, for which the “one-hybrid fitness for binding parS DNA” value was ≤ 0.2.

As to HWYR, the “one-hybrid fitness for binding parS DNA” value is ≤ 0.2.

Consider SKTA, for which the “one-hybrid fitness for binding parS DNA” value was ≤ 0.2.

For HKLR, the “one-hybrid fitness for binding parS DNA” value was ≤ 0.2.

Take QRRP: the “one-hybrid fitness for binding parS DNA” value was ≤ 0.2.

Consider TING, for which the “one-hybrid fitness for binding parS DNA” value is ≤ 0.2.

For IARN, the “one-hybrid fitness for binding parS DNA” value was ≤ 0.2.

In the case of KLNV, the “one-hybrid fitness for binding parS DNA” value is ≤ 0.2.

Regarding FTPK, the “one-hybrid fitness for binding parS DNA” value is ≤ 0.2.

As for EHDL, the “one-hybrid fitness for binding parS DNA” value is ≤ 0.2.

Take GRRS: the “one-hybrid fitness for binding parS DNA” value is ≤ 0.2.

As to KCVT, the “one-hybrid fitness for binding parS DNA” value was ≤ 0.2.

In the case of CLYS, the “one-hybrid fitness for binding parS DNA” value is ≤ 0.2.

RESF: the “one-hybrid fitness for binding parS DNA” value is ≤ 0.2.

Regarding YFIS, the “one-hybrid fitness for binding parS DNA” value is ≤ 0.2.

With EARN, the “one-hybrid fitness for binding parS DNA” value was ≤ 0.2.
